# According to the supplement of paper PMC8728848:
# The list shows a part of the results.
# How the values were obtained:
# Assay in all cases: glycan array binding signal (z-score within array); higher = stronger binding
# Details in all cases: glycan notation: IUPAC condensed, linker removed
# [1] = target: Gal3S6S(b1-4)GlcNAc
# How it was run: (§1)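 Glycan array binding is given as a within-array Z-score, which can be read as non-binding when negative. The arrays, 3228 of them, came from the Consortium for Functional Glycomics database and were retained only where the protein sequence was available. Z-scores were averaged across arrays of the same protein sequence at different concentrations or buffers and across linkers.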
# [2] = target: Gal3S6S(b1-4)GlcNAc6S
# How it was run: as §1
# [3] = target: Gal4S(b1-4)GlcNAc
# How it was run: as §1
# [4] = target: Gal4S6S(b1-4)GlcNAc
# How it was run: as §1
# [5] = target: Gal6P(b1-4)GlcNAc
# How it was run: as §1
# [6] = target: Gal6S(b1-3)GlcNAc
# How it was run: as §1
# [7] = target: Gal6S(b1-3)GlcNAc6S
# How it was run: as §1
# [8] = target: Gal6S(b1-4)Glc
# How it was run: as §1
# [9] = target: Gal6S(b1-4)Glc6S
# How it was run: as §1
# [10] = target: Gal6S(b1-4)GlcNAc
# How it was run: as §1
# [11] = target: Gal6S(b1-4)GlcNAc6S
# How it was run: as §1
# [12] = target: GalNAc(a1-3)Gal
# How it was run: as §1
# [13] = target: GalNAc(a1-3)GalNAc
# How it was run: as §1
# [14] = target: GalNAc(a1-3)GalNAc(a1-3)Gal(a1-4)Gal(b1-4)GlcNAc
# How it was run: as §1
# [15] = target: GalNAc(a1-3)GalNAc(b1-3)Gal(a1-4)Gal(b1-4)Glc
# How it was run: as §1
# [16] = target: GalNAc(a1-3)GalNAc(b1-3)Gal(a1-4)Gal(b1-4)GlcNAc
# How it was run: as §1
# [17] = target: GalNAc(b1-3)Gal
# How it was run: as §1
# [18] = target: GalNAc(b1-3)Gal(a1-4)Gal(b1-4)GlcNAc
# How it was run: as §1
# [19] = target: GalNAc(b1-3)Gal(a1-4)Gal(b1-4)GlcNAc(b1-3)Gal(b1-4)Glc
# How it was run: as §1
# [20] = target: GalNAc(b1-3)Gal(a1-6)Gal(b1-4)Glc
# How it was run: as §1
# [21] = target: GalNAc(b1-3)GalNAc
# How it was run: as §1
# [22] = target: GalNAc(b1-3)GlcNAc
# How it was run: as §1
# [23] = target: GalNAc(b1-4)Gal(b1-4)Glc
# How it was run: as §1
# [24] = target: GalNAc(b1-4)GlcNAc
# How it was run: as §1
# [25] = target: GalNAc(b1-4)GlcNAc(b1-2)Man
# How it was run: as §1
# [26] = target: GalNAc(b1-4)GlcNAc(b1-2)Man(a1-3)[GalNAc(b1-4)GlcNAc(b1-2)Man(a1-6)]Man(b1-4)GlcNAc(b1-4)GlcNAc
# How it was run: as §1
# [27] = target: GalNAc(b1-4)GlcNAc(b1-3)GalNAc(b1-4)GlcNAc
# How it was run: as §1
# [28] = target: GalNAc(b1-4)GlcNAc6S
# How it was run: as §1
# [29] = target: GalNAc(b1-6)GalNAc
# How it was run: as §1
# [30] = target: GalNAc3S(b1-4)GlcNAc
# How it was run: as §1
# [31] = target: GalNAc3S(b1-4)GlcNAc3S
# How it was run: as §1
# [32] = target: GalNAc3S(b1-4)[Fuc(a1-3)]GlcNAc
# How it was run: as §1
# [33] = target: GalNAc4S6S(b1-4)GlcNAc
# How it was run: as §1
# [34] = target: GalNAc6S(b1-4)GlcNAc
# How it was run: as §1
# [35] = target: Glc(a1-4)Glc
# How it was run: as §1
# [36] = target: Glc(a1-4)Glc(a1-4)Glc(a1-4)Glc
# How it was run: as §1
# [37] = target: Glc(a1-6)Glc(a1-6)Glc
# How it was run: as §1
# [38] = target: Glc(a1-6)Glc(a1-6)Glc(a1-6)Glc
# How it was run: as §1
# [39] = target: Glc(b1-4)Glc
# How it was run: as §1
# [40] = target: Glc(b1-6)Glc
# How it was run: as §1
# [41] = target: GlcA(b1-3)Gal
# How it was run: as §1
# [42] = target: GlcA(b1-3)GlcNAc
# How it was run: as §1
# [43] = target: GlcA(b1-6)Gal
# How it was run: as §1
# [44] = target: GlcA3S(b1-3)Gal(b1-4)GlcNAc(b1-2)Man
# How it was run: as §1
# [45] = target: GlcA3S(b1-3)Gal(b1-4)GlcNAc(b1-3)Gal(b1-4)Glc
# How it was run: as §1
binder,measurement,setting,value
SJA (Sophora japonica) (protein) FLGLFNSGGYSSSYQIVAVEFDTYINEWDPKTRHIGIDINSINSTKTVTWGWENGEVAIVLISYKAATETLTVSLTYPSSQTSYILSAAVDLKSILPEWVRIGF,glycan array binding signal (z-score),[1],-0.222
same,glycan array binding signal (z-score),[2],-0.235
same,glycan array binding signal (z-score),[3],-0.218
same,glycan array binding signal (z-score),[4],-0.277
same,glycan array binding signal (z-score),[5],-0.461
same,glycan array binding signal (z-score),[6],-0.367
same,glycan array binding signal (z-score),[7],-0.256
same,glycan array binding signal (z-score),[8],0.051
same,glycan array binding signal (z-score),[9],-0.345
same,glycan array binding signal (z-score),[10],-0.134
same,glycan array binding signal (z-score),[11],-0.243
same,glycan array binding signal (z-score),[12],-0.062
same,glycan array binding signal (z-score),[13],-0.201
same,glycan array binding signal (z-score),[14],-0.244
same,glycan array binding signal (z-score),[15],-0.355
same,glycan array binding signal (z-score),[16],-0.341
same,glycan array binding signal (z-score),[17],-0.054
same,glycan array binding signal (z-score),[18],-0.186
same,glycan array binding signal (z-score),[19],-0.154
same,glycan array binding signal (z-score),[20],-0.181
same,glycan array binding signal (z-score),[21],-0.123
same,glycan array binding signal (z-score),[22],-0.372
same,glycan array binding signal (z-score),[23],-0.031
same,glycan array binding signal (z-score),[24],3.38
same,glycan array binding signal (z-score),[25],2.46
same,glycan array binding signal (z-score),[26],1.1
same,glycan array binding signal (z-score),[27],8.25
same,glycan array binding signal (z-score),[28],3.05
same,glycan array binding signal (z-score),[29],-0.388
same,glycan array binding signal (z-score),[30],-0.295
same,glycan array binding signal (z-score),[31],-0.378
same,glycan array binding signal (z-score),[32],-0.303
same,glycan array binding signal (z-score),[33],-0.344
same,glycan array binding signal (z-score),[34],-0.254
same,glycan array binding signal (z-score),[35],-0.112
same,glycan array binding signal (z-score),[36],-0.043
same,glycan array binding signal (z-score),[37],-0.207
same,glycan array binding signal (z-score),[38],-0.077
same,glycan array binding signal (z-score),[39],0.081
same,glycan array binding signal (z-score),[40],0.034
same,glycan array binding signal (z-score),[41],-0.116
same,glycan array binding signal (z-score),[42],-0.363
same,glycan array binding signal (z-score),[43],-0.111
same,glycan array binding signal (z-score),[44],-0.333
same,glycan array binding signal (z-score),[45],-0.151
